The other results are listed elsewhere or left out. The full chains were built here from the parent and the listed change. Inactive controls read about 0.05.

Sequences and labels used below:
B1: TEV protease; numbered along this chain (parent)
chain: MGESLFKGPRDYNPISSSICHLTNESDGHTTSLYGIGFGPFIITNKHLFRRNNGTLVVQSLHGVFKVKDTTTLQQHLVDGRDMIIIRMPKDFPPFPQKLKFREPQREERICLVTTNFQTKSMSSMVSDTSCTFPSGDGIFWKHWIQTKDGQCGSPLVSTRDGFIVGIHSASNFTNTNNYFTSVPKNFMELLTNQEAQQWVSGWRLNADSVLWGGHKVFMVKPEEPFQPVKEATQL

Variants of B1 are the subject of the assay. The assay is described as follows: raw area under fraction-flipped curve 0-4 h after induction (AUC4h, not background-subtracted), DNA-recorder readout of cleavage of the substrate (dimensionless); higher = more cleavage of the substrate by the protease variant. As to conditions: temperature: 34 °C; time window: 0-4 h after rhamnose induction. How it is done:
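In vivo DNA recorder in E. coli TOP10(DE3) ΔrhaA at 34 °C. Each TEVp single-site mutant (parent TEVp 0) is paired with a single-site variant of the 7-mer TEVs (canonical ENLYFQ|S). The substrate sits between flexible linkers in a Bxb1-sfGFP-TEVs-SsrA fusion, so cleavage stabilises Bxb1 and speeds flipping of a recombination array, read by NGS. The value is the raw area under the fraction-flipped curve over 0-4 h after rhamnose induction (AUC4h), with ≥20 reads per time point. It is not background-subtracted; inactive controls average about 0.047.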
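Note: Bxb1 expression induced with 0.2% (w/v) L-rhamnose at OD600 near 0.5, cultures sampled hourly, flipped fraction per protease–substrate barcode pair counted by paired-end Illumina sequencing.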

In the case of MGESLFKGPRDYNPISSSICHLTNESDGHTTSLYGIGFGPFIITNKHLFRRNNGTLVVQSLHGVFKVKDTTTLQQHLVDGRDMIIIRMPKDFPPFPQKLKFREPQREERICLVTTNFQTKSMSSMVSDTSCTFPSGDGIFWKHWIQTKDGQCGSPLVSTRDGFIVGIHSASNFTNTNNYFTSVPKNFMELLTNQEAQQWVSGWRLRADSVLWGGHKVFMVKPEEPFQPVKEATQL [N206R], the “area with substrate ENLYAQS” value was determined as 0.06, the “area with substrate ENLYCQS” value amounted to 0.0885, the “area with substrate ENLYEQS” value turned out to be 0.0539 and the “area with substrate ENLYGQS” value was found to be 0.062. Moreover, the “area with substrate ENLYIQS” value amounted to 0.0956, the “area with substrate ENLYKQS” value came to 0.0589, the “area with substrate ENLYMQS” value stood at 0.0781 and the “area with substrate ENLYNQS” value was 0.121. The “area with substrate ENLYQQS” value is 0.0569, the “area with substrate ENLYRQS” value amounted to 0.0445, the “area with substrate ENLYSQS” value worked out at 0.0488 and the “area with substrate ENLYTQS” value amounted to 0.074. Further, the “area with substrate ENLYVQS” value is 0.0724 and the “area with substrate ENLYYQS” value stood at 0.0429.

In the case of MGESLFKGPRDYNPISSSICHLTNESDGHTTSLYGIGFGPFIITNKHLFRRNNGTLVVQSLHGVFKVKDTTTLQQHLVDGRDMIIIRMPKDFPPFPQKLKFREPQREERICLVTTNFQTKSMSSMVSDTSCTFPSGDGIFWKHWIQTKDGQCGSPLVSTRDGFIVGIHSASNFTNTNNYFTSVPKNFMELLTNQEAQQWVSGWRLNADSVLWGGHKVVMVKPEEPFQPVKEATQL [F218V], the “area with substrate ENLYAQS” value is 0.0673, the “area with substrate ENLYCQS” value stood at 0.0757, the “area with substrate ENLYDQS” value turned out to be 0.0482 and the “area with substrate ENLYEQS” value worked out at 0.066. For the same variant, the “area with substrate ENLYGQS” value amounted to 0.0409, the “area with substrate ENLYNQS” value was 0.0587, the “area with substrate ENLYPQS” value came out at 0.0657 and the “area with substrate ENLYRQS” value came out at 0.05. Also, the “area with substrate ENLYVQS” value is 0.117.

Regarding MGESLFKGPRDYNPISSSICHLTNESDGHTTSLYGIGFGPFIITNKHLFRRNNGTLVVQSLHGVFKVKDTTTLQQHLVDGRDMIIIRMPKDFPPFPQKLKFREPQREERICLVTTNFQTKSMSSMVSDTSCTFPSGDGIFWKHWIQTKDGQCGSPLVSTRDGFIVGIHSASNFTNTNNYFTSVPKNFMELLTNQEAQQWVSGWRLNADSVLWGGHKVIMVKPEEPFQPVKEATQL [F218I], the “area with substrate ENLYAQS” value stood at 0.042, the “area with substrate ENLYDQS” value came out at 0.0755, the “area with substrate ENLYEQS” value was 0.0726 and the “area with substrate ENLYGQS” value amounted to 0.0628. Besides, the “area with substrate ENLYHQS” value was 0.049, the “area with substrate ENLYIQS” value was found to be 0.108, the “area with substrate ENLYLQS” value is 0.0653 and the “area with substrate ENLYMQS” value stood at 0.0635. The “area with substrate ENLYNQS” value worked out at 0.0601, the “area with substrate ENLYPQS” value was 0.0714, the “area with substrate ENLYQQS” value came out at 0.191 and the “area with substrate ENLYSQS” value was 0.0695. Besides, the “area with substrate ENLYTQS” value worked out at 0.0786, the “area with substrate ENLYVQS” value was determined as 0.0913, the “area with substrate ENLYWQS” value was 0.0642 and the “area with substrate ENLYYQS” value was 0.0695.

Turning to MGESLFKGPRDYNPISSSICHLTNESDGHTTSLYGIGFGPFIITGKHLFRRNNGTLVVQSLHGVFKVKDTTTLQQHLVDGRDMIIIRMPKDFPPFPQKLKFREPQREERICLVTTNFQTKSMSSMVSDTSCTFPSGDGIFWKHWIQTKDGQCGSPLVSTRDGFIVGIHSASNFTNTNNYFTSVPKNFMELLTNQEAQQWVSGWRLNADSVLWGGHKVFMVKPEEPFQPVKEATQL [N45G], the “area with substrate ENLYCQS” value was 0.0698, the “area with substrate ENLYDQS” value worked out at 0.0671, the “area with substrate ENLYEQS” value turned out to be 0.0604 and the “area with substrate ENLYGQS” value is 0.0616. For the same variant, the “area with substrate ENLYHQS” value came out at 0.0613, the “area with substrate ENLYIQS” value stood at 0.0587, the “area with substrate ENLYKQS” value is 0.0396 and the “area with substrate ENLYLQS” value was 0.0686. For the same variant, the “area with substrate ENLYMQS” value turned out to be 0.0568, the “area with substrate ENLYNQS” value was 0.0596, the “area with substrate ENLYPQS” value was 0.0613 and the “area with substrate ENLYRQS” value was 0.0761. Also, the “area with substrate ENLYTQS” value worked out at 0.0681, the “area with substrate ENLYWQS” value stood at 0.0709 and the “area with substrate ENLYYQS” value is 0.083.

In the case of MGESLFKGPRDYNPISSSICHLTNESDGHTTSLYGIGFGPFIITNKHLFRRNNGTLVVQSLHGVFKVKDTTTLQQHLVDGRDMIIIRMPKDFPPFPQKLKFREPQREERICLVTTNFQTKSMSSMVSDTSCTFPSGDGIFWKHWIQTKDGQCGSPLVSTRDGFIVGIHSASNFTNTNNYFTSVPKNFMELLTNQEAQQWVSGWRLNADSVLWGGHKVFMVKPEEPFQPDKEATQL [V229D], the “area with substrate ENLYAQS” value came to 0.0716, the “area with substrate ENLYDQS” value amounted to 0.0725, the “area with substrate ENLYEQS” value was 0.0696 and the “area with substrate ENLYIQS” value stood at 0.133. Further, the “area with substrate ENLYNQS” value came out at 0.0766, the “area with substrate ENLYPQS” value came out at 0.0848, the “area with substrate ENLYQQS” value stood at 0.067 and the “area with substrate ENLYSQS” value was 0.0047. In addition, the “area with substrate ENLYTQS” value came to 0.0908, the “area with substrate ENLYVQS” value is 0.119 and the “area with substrate ENLYWQS” value turned out to be 0.0601.

MGESLFKGPRDYNPISSSICHLTNESDGHTTSLYGIGVGPFIITNKHLFRRNNGTLVVQSLHGVFKVKDTTTLQQHLVDGRDMIIIRMPKDFPPFPQKLKFREPQREERICLVTTNFQTKSMSSMVSDTSCTFPSGDGIFWKHWIQTKDGQCGSPLVSTRDGFIVGIHSASNFTNTNNYFTSVPKNFMELLTNQEAQQWVSGWRLNADSVLWGGHKVFMVKPEEPFQPVKEATQL [F38V]: the “area with substrate ENLYCQS” value was 0.0817, the “area with substrate ENLYEQS” value amounted to 0.0626, the “area with substrate ENLYGQS” value stood at 0.0737 and the “area with substrate ENLYPQS” value turned out to be 0.0978. Moreover, the “area with substrate ENLYRQS” value is 0.0536, the “area with substrate ENLYWQS” value was 0.0707 and the “area with substrate ENLYYQS” value is 0.0635.

For MGESLFKGPRDYNPISSSICHLTNESDGHTTSLHGIGFGPFIITNKHLFRRNNGTLVVQSLHGVFKVKDTTTLQQHLVDGRDMIIIRMPKDFPPFPQKLKFREPQREERICLVTTNFQTKSMSSMVSDTSCTFPSGDGIFWKHWIQTKDGQCGSPLVSTRDGFIVGIHSASNFTNTNNYFTSVPKNFMELLTNQEAQQWVSGWRLNADSVLWGGHKVFMVKPEEPFQPVKEATQL [Y34H], the “area with substrate ENLYCQS” value worked out at 0.0832, the “area with substrate ENLYEQS” value is 0.053, the “area with substrate ENLYGQS” value came out at 0.0768 and the “area with substrate ENLYHQS” value turned out to be 0.0531. The “area with substrate ENLYPQS” value worked out at 0.0896, the “area with substrate ENLYSQS” value was found to be 0.0737 and the “area with substrate ENLYYQS” value is 0.0684.

With MGESLFKGPRDYNPISSSICHLTNESDGHTTSLYGIGFGPFIITNKHLFRRNNGTLVVQSLHGVFKVKDTTTLQQHLVDGRDMIIIRMPKDFPPFPQKLKFREPQREERICLVTTNFQTKSMSSMVSDTSCTFPSGDGIFWKHWIQTKDGQCGSPLVSTRDGFIVGIHSASNFTNTNNYFTSVPKNFMELLTNQEAQQWVSGWRLNADSVLWGGHKVFMVKPEEPFQPVKEAWQL [T233W], the “area with substrate ENLYAQS” value is 0.0709, the “area with substrate ENLYCQS” value is 0.0943, the “area with substrate ENLYEQS” value is 0.0584 and the “area with substrate ENLYKQS” value was found to be 0.0746. In addition, the “area with substrate ENLYLQS” value was 0.0747, the “area with substrate ENLYNQS” value worked out at 0.0828, the “area with substrate ENLYPQS” value came out at 0.0704 and the “area with substrate ENLYVQS” value is 0.119. Further, the “area with substrate ENLYWQS” value was determined as 0.0858.

With MGESLFKGPRDYNPISSSICHLTNESDGGTTSLYGIGFGPFIITNKHLFRRNNGTLVVQSLHGVFKVKDTTTLQQHLVDGRDMIIIRMPKDFPPFPQKLKFREPQREERICLVTTNFQTKSMSSMVSDTSCTFPSGDGIFWKHWIQTKDGQCGSPLVSTRDGFIVGIHSASNFTNTNNYFTSVPKNFMELLTNQEAQQWVSGWRLNADSVLWGGHKVFMVKPEEPFQPVKEATQL [H29G], the “area with substrate ENLYCQS” value turned out to be 0.0925, the “area with substrate ENLYDQS” value worked out at 0.0677, the “area with substrate ENLYEQS” value stood at 0.0149 and the “area with substrate ENLYIQS” value is 0.162. For the same variant, the “area with substrate ENLYNQS” value was determined as 0.0673, the “area with substrate ENLYRQS” value came to 0.0561, the “area with substrate ENLYSQS” value is 0.0961 and the “area with substrate ENLYVQS” value worked out at 0.0858.

With MGESLFKGPRDYNPISSSICHLTNESDGHTTSLYGIGFGPFIITNKHLFRRNNGTLVVQSLHGVFKVKDTTTLQQHLVDGRDMIIIRMPKDFPPFPQKLKFREPQREERICLVTTNFQTKSMSSMVSDTSCTFPSGDGIFWKHWIQTKDGQCGSPLVSTRDGFIVGIHSASNFTNTNNYFTSVPKNFMELLTNQEAQQWVSGWRLNADSVLWGGHKVFMVKPEEPFAPVKEATQL [Q227A], the “area with substrate ENLYAQS” value worked out at 0.0812, the “area with substrate ENLYEQS” value was 0.0849, the “area with substrate ENLYGQS” value came to 0.0827 and the “area with substrate ENLYSQS” value was found to be 0.0727.

Values taken from the supplement of paper PMC12217912.
